Earlier results as cited in PMC13421293 (Thrombosis and Haemostasis, 2025).

Tested on: platelet P2Y12 receptor
Parameters: method as in PMID 20091161, PMID 17980251
Details: metabolite compared with ticagrelor; cited from earlier work

CCCSc1nc(N[C@@H]2C[C@H]2c2ccc(F)c(F)c2)c2nnn([C@@H]3C[C@H](O)[C@@H](O)[C@H]3O)c2n1 [AR-C124910XX]
inhibition potency of the platelet P2Y12 receptor: the same
